From PMC6212790
The list shows a part of the results. At the low end of the ranking, values are background and their order means little.

target: T1, GST-Rok (full length) (UniProt O34857); assay: protein binding microarray; conditions: Rok is a gene silencer of Bacillus subtilis; high values mean tight binding; most listed sequences are background and not binding sites; double strand, one strand shown;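 note: rank score from −0.5 (least bound) to 0.5 (best bound)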
T1 sequence: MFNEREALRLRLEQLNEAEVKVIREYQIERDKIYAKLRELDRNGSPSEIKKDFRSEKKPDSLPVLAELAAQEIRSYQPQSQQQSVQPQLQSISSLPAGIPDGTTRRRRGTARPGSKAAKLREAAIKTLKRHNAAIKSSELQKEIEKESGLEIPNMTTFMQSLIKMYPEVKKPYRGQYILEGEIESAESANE

Row | Sequence | binding signal [E-score]
1 | GCGCAGGA | -0.089
2 | ATTCGGTG | 0.0753
3 | CTCCGTTA | 0.0963
4 | CTAGCAGC | -0.136
5 | CCTCCACC | -0.401
6 | AACACCTG | 0.00454
7 | ATTGAATC | 0.0739
8 | AGTACTTC | 0.189
9 | GTATTGAA | 0.0952
10 | CGTCGAAG | -0.0689
11 | AAGCCATC | -0.269
12 | GCCCCCCA | -0.471
13 | AGGCTCAT | -0.25
14 | ACTAAATA | 0.3
15 | AATCTGAA | -0.0418
16 | ACCTAAGC | 0.0895
17 | CTGCTAAG | -0.125
18 | GATTTCCA | 0.0352
19 | AGCTCAAC | 0.0145
20 | AACCGTTG | -0.0339
21 | TAGTGATA | 0.331
22 | CGGGGAAG | -0.361
23 | CCACGGCA | -0.123
24 | TCTCCACA | -0.0759
25 | AGCGTGAA | -0.0805

Row | Sequence | binding signal [E-score]
26 | AGATAACC | 0.084
27 | ATGATGAA | 0.0926
28 | CAACACTG | -0.0392
29 | CCACTAGG | -0.114
30 | CTTATACA | 0.283
31 | AACATATC | 0.284
32 | AGGACCCT | -0.307
33 | CGGTTGAG | -0.0643
34 | ACGCAGTA | 0.125
35 | AGATCACA | 0.119
36 | CCCACCGA | -0.166
37 | AAGATTTA | 0.168
38 | CATGTGAA | -0.1
39 | ATCAATGC | 0.0135
40 | AAGAAGGG | -0.289
41 | ATTTGATG | -0.00991
42 | AAACGAGG | -0.0595
43 | CTTGGCGA | -0.149
44 | GCACGGTA | 0.255
45 | CCCTGTAC | -0.195
46 | GATCAAAC | -0.114
47 | ATAGGTAG | 0.41
48 | CTGTTCGC | -0.0909
49 | AGCGACCA | -0.111
50 | CCAAATCA | -0.0903

Row | Sequence | binding signal [E-score]
51 | ACCGTACC | -0.0344
52 | GTCAGCGA | -0.0654
53 | CCTACAAA | 0.139
54 | AACAATCT | 0.0279
55 | AAAACACA | 0.0481
56 | ACTGCCCA | -0.0313
57 | ATTGGCCA | -0.011
58 | CAATCGAA | -0.171
59 | AACGGCTC | -0.171
60 | CTGCCGCC | -0.244
61 | ACATTGAT | 0.155
62 | ATGTAAAC | 0.0692
63 | TATATAAA | 0.399
64 | AAATATGT | 0.338
65 | GATCAAGC | -0.204
66 | ACAGTCGC | -0.184
67 | CAATTTTC | 0.0141
68 | ACTGCGGC | -0.209
69 | AAGACGGG | 0.00471
70 | AAGGACCA | -0.0732
71 | CTTAGTCC | -0.0248
72 | ATTTCTAA | 0.303
73 | TATTTGCA | 0.225
74 | CAATGACA | 0.12
75 | CAGTTTTC | 0.0134

Row | Sequence | binding signal [E-score]
76 | AACTTTCA | 0.223
77 | TTCTGAAA | 0.0783
78 | GGACCTCC | -0.281
79 | ACTCCCTG | -0.258
80 | GATCAATA | 0.157
81 | AAGCCGAT | 0.0669
82 | TGACGCCA | -0.132
83 | ATTGGGCC | -0.257
84 | ACAACGCA | 0.118
85 | AAGATTAG | 0.197
86 | CCAGGAAC | -0.136
87 | CCAATATC | 0.153
88 | ACTGGCAT | 0.0143
89 | AAAGGTAT | 0.164
90 | AAGGTCCG | -0.214
91 | ACTTTGGA | -0.0953
92 | ACGCCCGC | -0.324
93 | ATCCAGGC | -0.117
94 | AGCGTTAG | -0.127
95 | AAGCTTAA | 0.0855
96 | CAGGGAGA | -0.315
97 | GTGCACAC | 0.00113
98 | GAATGTCA | 0.0732
99 | ATTGAGGG | -0.115
100 | ATCTCGGA | 0.177

Row | Sequence | binding signal [E-score]
101 | GAGACTCC | -0.283
102 | ATCACATA | 0.3
103 | GTTCATAA | 0.00382
104 | AAGCCTCA | -0.197
105 | GGTTAAGA | 0.0177
106 | CATTCCGA | 0.0879
107 | CCGGTGAC | -0.0205
108 | AGAATTTG | 0.252
109 | CCCCCCCG | -0.332
110 | GGCGCTGA | -0.178
111 | GAGGACAA | -0.115
112 | ACTTCGAG | -0.0491
113 | GTTGGGAA | -0.0644
114 | GAGTTCCA | -0.102
115 | GCAGGCCA | -0.389
116 | GGTCTCAC | 0.00944
117 | GCAATTAA | 0.19
118 | CCCCGCGA | -0.312
119 | GGGTGCAC | -0.252
120 | GATACTCC | -0.0433
121 | GGTGGTAC | -0.0613
122 | GCGACGAA | -0.014
123 | GGCGATCA | 0.102
124 | CTGTCCAC | -0.116
125 | AATGTCGA | -0.0305

Row | Sequence | binding signal [E-score]
126 | CACAAGCA | -0.0543
127 | CTAGAGTC | -0.1
128 | CTCGCCCA | -0.293
129 | AATAAAGA | 0.141
130 | AGTGGTAG | 0.393
131 | CTGATCGA | -0.0979
132 | ACTATATA | 0.453
133 | ATAAGGGC | -0.166
134 | TGCGGCCA | -0.152
135 | AACTTAGT | 0.251
136 | AGGGTTCC | -0.246
137 | AGGATGTG | 0.00402
138 | ACATTTAG | 0.131
139 | CAGATGTA | 0.248
140 | AAATCAAC | 0.116
141 | AGAGTCAT | 0.0963
142 | GATGCGGC | -0.198
143 | AGGGGCCG | -0.413
144 | CCCATGTC | -0.112
145 | AGGGGTAA | -0.0832
146 | CCTCAAAA | -0.258
147 | CATGGTAA | 0.198
148 | ATTGAAAG | -0.0678
149 | CTTATCCC | -0.268
150 | CGCTGAAA | -0.181

Row | Sequence | binding signal [E-score]
151 | ACGTACAA | 0.254
152 | ACGCGTAC | -0.24
153 | ATGAATCA | 0.129
154 | AAATCATA | 0.221
155 | ATTCAAAC | 0.132
156 | CGCATGTA | 0.0901
157 | GTCGCCGA | -0.1
158 | GAGCATCA | -0.0826
159 | ACTGAGTC | -0.21
160 | AAAATATG | 0.278
161 | ATAAGTAA | 0.267
162 | ATCATTTA | 0.334
163 | CAATAATA | 0.352
164 | GCCGTGAA | -0.0714
165 | TGATAAAA | 0.27
166 | CTCATGTC | -0.19
167 | ACAACCGA | 0.145
168 | ATCTGAGA | -0.0192
169 | AGAGGTTC | -0.315
170 | AAGAGGCA | -0.367
171 | TGGAAAAA | 0.0512
172 | ACTGTAGC | 0.192
173 | CCGTCGAA | -0.144
174 | AGAAGAGC | -0.29
175 | AAGTAAAA | 0.246

Row | Sequence | binding signal [E-score]
176 | CTGACGAA | -0.0116
177 | GTGGGCGA | -0.181
178 | AGGGCACG | -0.378
179 | ATAACGTC | 0.21
180 | CTATTACC | 0.301
181 | CCACGTCA | -0.121
182 | ACTCCGAA | -0.0948
183 | ACTTATGC | 0.139
184 | GGGCAAGA | -0.145
185 | CTAGCGTC | -0.0555
186 | ACTCTTCC | -0.0862
187 | GCCCGCCC | -0.43
188 | TTAGTAAA | 0.237
189 | CGCGATCA | -0.176
190 | CCATCGAC | -0.12
191 | ATGCAGCC | -0.187
192 | AAACCCGT | -0.0147
193 | GCGTAAAC | 0.0765
194 | AGTTCCGA | 0.0258
195 | TACGTATA | 0.35
196 | ACGGACCG | -0.149
197 | GTCCTATA | 0.122
198 | CTTTTGCC | -0.0119
199 | ACCACCGA | 0.0236
200 | CCTGCCTC | -0.185

Row | Sequence | binding signal [E-score]
201 | GCTTTTGA | -0.132
202 | ATGACCAC | -0.0522
203 | ATAACAAA | 0.196
204 | CGGAGCCC | -0.386
205 | ACTAAGTC | 0.132
206 | CCCTTCTC | -0.29
207 | CCGTAGTC | -0.295
208 | CCTATGCC | -0.0371
209 | AGCACTTG | -0.104
210 | AGCCTGAC | -0.0307
211 | CATTTCTC | 0.0814
212 | CGACGAGA | -0.0756
213 | AACGAGGG | -0.183
214 | CCCTCGCG | -0.279
215 | AAGTTACG | 0.182
216 | ATAACGCC | -0.0927
217 | AATGCCTC | -0.155
218 | ACGAACAG | 0.134
219 | ATGCTGTA | 0.193
